Series [1] can be described thus: SGF digest of 168 nutritive polypeptide library, intact protein by LC-MS/MS. The class given is in vitro ADME. Particulars: 168 nutritive polypeptide library SGF digest, LC-MS/MS spectral counts. As to the method: The in vitro intact half-life of multiple polypeptides in a complex mixture was determined using the simulated gastric in vitro digestion described above. Briefly, the 168 nutritive polypeptide library was generated as described herein by cloning, transforming, and expressing a gene library encoding 168 proteins as a single mixture. The recombinantly expressed proteins were purified from host cell proteins by IMAC purification as described herein.
The 168 Protein Library was treated with SGF as described above and the t=0 and t=10 min samples were analyzed for intact protein by LC-MS/MS. To begin, 10 μg of sample was loaded onto a 10% SDS-PAGE gel (Invitrogen) and run approximately 5 cm into the gel. The gel was excised into ten fractions from 100 kD to the dye front and the gel slices were processed by washing with 25 mM ammonium bicarbonate, followed by acetonitrile. Gel fractions were then reduced with 10 mM dithiothreitol at 60° C., followed by alkylation with 50 mM iodoacetamide at room temperature. Finally, the samples were digested with trypsin (Promega) at 37° C. for 4 h and the digestions were quenched with the addition of formic acid. The samples were then analyzed by nano LC/MS/MS using an EasynLC 1000 HPLC system interfaced to a ThermoFisher Q Exactive. Peptides were loaded on a trapping column and eluted over a 75 μm analytical column at 350 nL/min; both columns were packed with PepMap C18 3 μm resin (ThemoFisher). A 1 hour gradient was employed. The mass spectrometer was operated in data-dependent mode, with MS and MS/MS performed in the Orbitrap at 70,000 FWHM resolution and 17,500 FWHM resolution, respectively. The fifteen most abundant ions were selected for MS/MS. Data were searched against an appropriate database using Mascot to identify peptides. Mascot DAT files were parsed into the Scaffold software for validation, filtering and to create a nonredundant list per sample. Data were filtered at 1% protein and peptide false discovery rate (FDR) and requiring at least two unique peptides per protein. A full list of detected proteins and their spectral counts (SpC) was generated and reported as a function of each collected gel fraction. SpC are a count of the number of spectra identified for a given protein and are used as a measure of relative protein abundance (Liu, H. et al., Analytical Chemistry 2004, 76: 4193-4201). To calculate the percentage of intact protein remaining at the 10 min time point of the SGF digest the number of SpC representative of intact peptide in the t=10 min sample were divided by the number of SpC representative of intact peptide in the t=0 min sample. […]

The subject of series [2] is Pancreatin. The class given is in vitro ADME, Porcine. As to the method:
Control samples were protease-free.
Analyses were performed using an Agilent 1100 series system.

A short description of series [3]: Thermostability, temperature of aggregation (ProteoStat Thermal Shift). Format: physicochemical. Also on record: key: temperature in °C. How it is done: The thermostability of proteins in a buffer cocktail of Citric Acid and Dibasic Sodium Phosphate over a pH range of 2.8 to 7.1 (preparation described above in Table E31B) was determined using the ProteoStat® Thermal Shift Stability Kit (Enzo Life Sciences) according to the manufacturer's standard protocol. Briefly, protein solutions (˜10 mg/ml) containing 1× ProteoStat TS Detection Reagent were heated from 25° C. to 95° C. at a rate of 0.5° C. per 30 sec using a real-time PCR (rtPCR) thermocycler (BioRad) equipped with a plate reader (SynergyMx, Biotek) while monitoring the fluorescence with a Texas Red filter.

B1: SEQID-00582: protein of the 168 nutritive polypeptide library (protein, listed as Agaricus bisporus)
chain: MQPKAAASKTPAVKHKFVIDYSKPAADGVFDGADFEKFLHDRIKVEGKAGQLGDHVKITRDGNTKITVTSNIPFSKRYLKYLTKKFLKKNTLRDWIRVVASSKDNYQLRFYNIA
modifications: source: /note="var. bisporus"; source: /note="strain H97 / ATCC MYA-4626 / FGSC 10389"
notes: protein of the 168 nutritive polypeptide library
For B1, in series [1], the “% Intact Protein at 10 min” value turned out to be 15.2%.

B2: SEQID-00583: protein of the 168 nutritive polypeptide library (protein)
chain: MAPPQPKSGLFVGINKGHVVTKRELPLRPSHRKGKATKRVSMVRGLIREVAGFAPYEKRITELLKVGKDKRALKLAKRKLGTHKRAKKKREEMMGVLRKMRSAGTHTDKKK
modifications: Zea mays
notes: as for B1
Take B2: the “% Intact Protein at 10 min” value in series [1] amounted to 0%.

B3: SEQID-00103: nutritive polypeptide naturally produced in Rice, recombinantly expressed in E. coli (protein, listed as Oryza sativa)
chain: MEGLTSEQMVAFQEAFLLFDKNGDGCITLEELAAVTRSLGLEPTDQELNDMMREVDTDGNGIIDFQEFLSLIARKMKDGDGDEELKEAFEVLDKDQNGFISPTELRTVMTNLGEKMTDEEVEQMIREADTDGDGQVNYDEFVIMMKNAERKISG
Take B3: the “Free Leu (μM) at 120 min time point of Pancreatin digest” value in series [2] was 793.8 µM. Further, the values for the Tagg in series [3] (pH 3.7) and in series [3] (pH 3.9) were 45.5 and 41.5, respectively.

B4: SEQID-00639: protein of the 168 nutritive polypeptide library (protein, listed as Saccharomyces cerevisiae)
chain: MAKRTKKVGITGKYGVRYGSSLRRQVKKLEIQQHARYDCSFCGKKTVKRGAAGIWTCSCCKKTVAGGAYTVSTAAAATVRSTIRRLREMVEA
modifications: source: /note="strain ATCC 204508 / S288c"
notes: as for B1
On to B4, for which, in series [1], the “% Intact Protein at 10 min” value is listed as 0%.

B5: SEQID-00631: protein of the 168 nutritive polypeptide library (protein, listed as Lactobacillus acidophilus)
chain: MARIAGVDLPRDKRIVVALTYIYGIGDTTAKKICADAGVSEDVRSKDLTPEDQEKLRAEVDKYRVEGDLRREVSMNIKRLVDIGSYRGIRHRRGLPVRGQNTKNNARTRKGTKRNR
modifications: source: /note="strain 30SC"
notes: as for B1
As to B5, in series [1], the “% Intact Protein at 10 min” value was determined as 17.1%.
